The values below come from publication PMC4336329 (PLoS ONE, 2015).

Molecules are shown by their SMILES. Out of some 310,000 compounds screened, about 14,000 (4.5%) showed an effect of 50% or more. Effects have a minus sign here. The list shows a part of the results.
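Also: peak tail current of the secondary pulse compared with the same well before compound.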

The target in this assay is human ether-à-go-go-related gene (hERG) potassium channel (human, UniProt Q12809). Nature of the assay: primary screen, population patch clamp on CHO cells stably expressing hERG.
Chain of human ether-à-go-go-related gene (hERG) potassium channel (Q12809 whole entry, looked up): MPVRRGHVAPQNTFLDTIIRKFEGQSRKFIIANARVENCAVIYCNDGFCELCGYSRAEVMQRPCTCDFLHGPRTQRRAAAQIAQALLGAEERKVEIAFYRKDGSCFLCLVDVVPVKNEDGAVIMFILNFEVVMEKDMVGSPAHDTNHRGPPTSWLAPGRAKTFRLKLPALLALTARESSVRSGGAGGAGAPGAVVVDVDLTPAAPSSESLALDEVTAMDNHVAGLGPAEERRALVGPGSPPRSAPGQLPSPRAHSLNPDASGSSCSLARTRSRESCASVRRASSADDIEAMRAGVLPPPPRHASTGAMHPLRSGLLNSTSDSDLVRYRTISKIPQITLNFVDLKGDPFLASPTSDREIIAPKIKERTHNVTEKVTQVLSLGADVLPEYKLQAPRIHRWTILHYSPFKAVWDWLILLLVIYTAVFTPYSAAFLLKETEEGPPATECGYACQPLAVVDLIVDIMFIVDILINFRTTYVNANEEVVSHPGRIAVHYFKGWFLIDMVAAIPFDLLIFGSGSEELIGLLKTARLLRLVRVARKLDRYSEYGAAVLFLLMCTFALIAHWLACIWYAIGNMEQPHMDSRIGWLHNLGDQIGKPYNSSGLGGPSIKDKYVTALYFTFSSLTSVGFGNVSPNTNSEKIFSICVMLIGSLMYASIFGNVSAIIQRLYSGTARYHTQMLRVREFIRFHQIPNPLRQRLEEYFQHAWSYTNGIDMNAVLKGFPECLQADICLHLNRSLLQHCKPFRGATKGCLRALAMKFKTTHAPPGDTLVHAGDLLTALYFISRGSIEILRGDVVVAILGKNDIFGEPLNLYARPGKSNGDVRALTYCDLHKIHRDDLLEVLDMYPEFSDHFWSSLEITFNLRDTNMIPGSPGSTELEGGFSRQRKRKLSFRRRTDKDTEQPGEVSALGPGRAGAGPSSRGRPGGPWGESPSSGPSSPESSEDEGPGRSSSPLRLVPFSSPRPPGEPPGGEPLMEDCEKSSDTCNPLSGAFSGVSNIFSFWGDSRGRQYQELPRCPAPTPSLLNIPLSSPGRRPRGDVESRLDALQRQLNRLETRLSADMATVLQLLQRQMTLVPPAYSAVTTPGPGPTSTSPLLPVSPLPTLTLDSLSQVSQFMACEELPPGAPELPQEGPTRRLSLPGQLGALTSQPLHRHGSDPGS
Take `Cn1ncc(Br)c1C(=O)NC1CCCCCC1`: the “hERG current change (%, negative = inhibition) at 10uM” value is given as -24.7%.
In the case of `Cc1ccc(NC(=O)c2ccc(S(=O)(=O)N3CCOCC3)cc2)c(C)c1` it was 7.5%; in that of `COc1ccc(Cl)cc1Nc1nc(-c2sc(NC(=O)CC(C)C)nc2C)cs1`, 14.6%.
Regarding `CC(C)(C)c1ccc(OCC(=O)N/N=C/C2CC=CCC2)cc1` (stereo not drawn), the “hERG current change (%, negative = inhibition) at 10uM” value is given as -11.4%.
In the case of `O=C(Nc1ccc2c(c1)OCO2)C1CCN(C(=O)c2ccc(Br)cc2)CC1` it was -70.5%; in that of `Cc1ccc2cc3c(NC(=O)C4CCCO4)nn(CC(C)C)c3nc2c1` (stereo not drawn), 11.7%; in that of `O=C(NCCCNC(=O)c1cnccn1)c1cccc(Cl)c1`, -5.72%.
In the case of `CN(C)S(=O)(=O)N1CCC(Oc2cccc(C(=O)NC3CCCCC3)c2)CC1` it was -28.2%; in that of `O=C(CC(Cc1ccccc1)C(=O)O)Nc1ccc(Cl)c(Cl)c1` (stereo not drawn), 27.9%; in that of `CCc1cccc(C)c1NC(=O)c1ccoc1C`, 0.315%.
In the case of `Cc1cc(C(F)(F)F)nn1CC(=O)NNC(=S)NCC(C)C` it was -1.35%; in that of `COC(=O)c1cc(NC(=O)CC2NCCNC2=O)cc(C(=O)OC)c1` (stereo not drawn), 5.72%; in that of `COc1ccc(Cl)cc1S(=O)(=O)N1CCC(O)(c2ccc(Cl)cc2)CC1`, 28.9%.
`CC(C)OCC(O)CN1CCN(C(c2ccccc2)c2ccccc2)CC1.Cl` (stereo not drawn): the “hERG current change (%, negative = inhibition) at 10uM” value is recorded as -58.1%.
In the case of `CC(C)c1ccc(NC2CCCN(C(=O)c3ccsc3)C2)cc1` (stereo not drawn) it was -0.745%; in that of `CC(=O)c1c(C)nn(CC(O)Cn2c3c(c4cc(C)ccc42)CCCC3=O)c1C` (stereo not drawn), -18.2%; in that of `COc1cc(-c2noc(C)c2/C=C/c2cccc([N+](=O)[O-])c2)cc(OC)c1OC`, -2.59%.
Regarding `COc1cc(/C=N/n2c(-c3n[nH]c4c3CCC4)n[nH]c2=S)cc(OC)c1O`, the “hERG current change (%, negative = inhibition) at 10uM” value is recorded as 24.2%.
In the case of `O=C(CCc1nnc2ccc(NCc3ccco3)nn12)Nc1ccc(F)cc1` it was -9.82%; in that of `Cc1ccc(C)c(OCC(=O)NCCNC(=O)COc2cc(C)ccc2C)c1`, 7.21%; in that of `O=C(c1ccc(COc2c(F)c(F)c(F)c(F)c2F)o1)N1CCN(Cc2ccc3c(c2)OCO3)CC1`, -35.8%.
In the case of `COc1cccc(N2C(=O)Nc3ccc(Br)cc3C2(O)C(=O)NCCN(C)C)c1` (stereo not drawn) it was 8.56%; in that of `COc1cc(NC(=O)c2ccc(-c3ccc(Br)cc3)o2)ccc1NC(=O)C(C)C`, -26.1%.
`CCc1ccc(OC(C)C(=O)N(Cc2ccccc2)C2CCS(=O)(=O)C2)cc1` (stereo not drawn): the “hERG current change (%, negative = inhibition) at 10uM” value is -13.1%.
Under `CC(C)n1c(=NC(=O)c2ccco2)c(C#N)cc2c(=O)n3ccccc3cc21` stands -52.2%.
For the compound `Cn1c(SCC(=O)Nc2nccs2)nnc1-c1ccccn1`, the “hERG current change (%, negative = inhibition) at 10uM” value was 18%.
Under `CCS(=O)(=O)N1CCN(c2cccc(C)c2C)CC1` stands -14.5%.
Under `COCC(C)n1c(SCc2cc(=O)n3cc(C)ccc3n2)nc2ccccc2c1=O` (stereo not drawn) stands -33.3%; under `C#CCOCCOCCOCCNc1nc(N2CCN(C(=O)C([C@@H](C)CC)n3cc(C(N)CC(C)C)nn3)CC2)nc(N2CCN(C(=O)[C@H](CCC(=O)O)n3cc(C(N)Cc4ccc(O)cc4)nn3)CC2)n1.Cl` (stereo partly drawn), 1.03%.
Under `COc1cccc(C2C(C(=O)c3cccs3)=C(O)C(=O)N2CCN(C)C)c1OC` (stereo not drawn) stands -4.22%.
As to `N#Cc1c(-c2ccco2)nc(NCC2CCCO2)[nH]c1=O` (stereo not drawn), the “hERG current change (%, negative = inhibition) at 10uM” value is on record as 7.53%.
Regarding `COc1ccc(S(=O)(=O)Nc2ccccc2C(=O)OC2CCCN(C)C2)cc1OC.Cl` (stereo not drawn), the “hERG current change (%, negative = inhibition) at 10uM” value was determined as 0.859%.
In the case of `Cc1ccc(-c2nnc(Nc3ccc4c(c3)OCO4)c3ccccc23)cc1S(=O)(=O)NC(C)C` it was -14.1%; in that of `O=C(CCN1CCOCC1)NC1CCCN(Cc2ccccc2F)C1` (stereo not drawn), 9.34%.
Under `COC(=O)[C@H](C)NC(=O)c1cc2c(cn1)[nH]c1ccccc12` stands 7.14%; under `c1ccc(-n2nnnc2-n2ccnc2)cc1`, 4.7%; under `O=C(O)C(=O)O.c1ccc(-c2ccccc2OCCOCCN2CCCCC2)cc1`, -44.7%.
Under `CC(=O)N(Cc1cccnc1)c1cccc(-c2nc3ccccc3s2)c1` stands -51.1%; under `Cc1cc(NC(=O)c2cc(-c3ccc(C)s3)nc3ccccc23)no1`, 10.7%; under `CC(=O)c1cccc(NC(=O)C2CCN(C(=O)c3ccc([N+](=O)[O-])cc3)CC2)c1`, -69.6%.
With `Cc1c(C(=O)N2CCCCC2)oc2ccc(Br)cc12`, the “hERG current change (%, negative = inhibition) at 10uM” value is recorded as -17.6%.
In the case of `COc1ccc(OC)c(Nc2nc(-c3ccncc3)nc3ccccc23)c1` it was 14.6%; in that of `CCn1nc(C)c(CN2CCCC(CO)(Cc3cccc(Cl)c3)C2)c1C` (stereo not drawn), -40.8%.
Under `Cc1cccc(C(=O)Nc2nsc(N)n2)c1` stands 11.6%; under `CCN1CCN(C(=O)CCc2nnc3ccc(N4CCC5(CC4)OCCO5)nn23)CC1`, 24.2%; under `Cn1ncc([N+](=O)[O-])c1C(=O)N/N=C/c1c[nH]c2ccccc12`, 19.6%.
In the case of `O=C(c1cc2c(s1)CCC2)N1CCN(c2ccccc2)CC1` it was -2.48%.
Take `Cc1cccc(-n2c(N)cc(=O)nc2SCC(=O)NC2CCCCC2)c1`: the “hERG current change (%, negative = inhibition) at 10uM” value is listed as -1.47%.
Under `O=C(NCc1cccc(F)c1)c1noc2c1CCCC2` stands 0.707%; under `CC(c1ccco1)N(C(=O)c1ccccc1NS(=O)(=O)c1ccc(Cl)cc1)c1ccccn1` (stereo not drawn), -21.3%.
In the case of `N#C/C(=C/c1ccc(-c2cc(C(=O)O)cc(C(=O)O)c2)o1)c1nc2ccccc2s1` it was 31.7%; in that of `COC(=O)c1c(O)cc(C(C)(C)C)n(-c2ccc(F)cc2)c1=O`, -1.88%; in that of `Cc1ccc(S(=O)(=O)N2CCN(C(=O)CCC(=O)NCCc3ccc(S(N)(=O)=O)cc3)CC2)c(C)c1`, -0.437%.
As to `COCCn1c(SCC#N)nnc1-c1ccc(OC)cc1`, the “hERG current change (%, negative = inhibition) at 10uM” value is 9.39%.
For `Cc1ccn(-c2cc(O)c(-n3ccc(C)n3)cc2O)n1`, the “hERG current change (%, negative = inhibition) at 10uM” value came to 18.9%.
Under `CCNC(=O)/C(C#N)=C/c1c(N2CCN(c3cccc(Cl)c3)CC2)nc2c(C)cccn2c1=O` stands 6.34%; under `COc1ccc(C(=O)NC(=S)Nc2cccc(NC(=O)c3ccco3)c2)cc1[N+](=O)[O-]`, -2.5%; under `COc1ccc(NC(=O)CN(C)C(=O)c2sc3ccccc3c2Cl)cc1`, -13.6%.
Under `COc1ccc(-c2cc(C(=O)N/N=C/c3ccc(OC)c(COCC(F)(F)C(F)F)c3)c3ccccc3n2)c(OC)c1` stands 18.8%; under `COc1ccc(CCNC(=S)NC2CCN(Cc3ccccc3)CC2)cc1OC`, -39.1%.
With `Nc1ncnc2c1ncn2[C@@H]1O[C@H](CO)[C@@H](O)[C@H]1O`, the “hERG current change (%, negative = inhibition) at 10uM” value is 9.37%.
As to `O=C(Nc1ccc2oc(-c3ccccc3F)nc2c1)c1ccc2c(c1)OCCO2`, the “hERG current change (%, negative = inhibition) at 10uM” value is given as -8.5%.
Under `COc1ccc(CC2(CO)CCN(Cc3cccn3-c3ccccn3)CC2)cc1` stands -75.4%; under `Cc1cc(OC(C)C(=O)NCCN2CCOCC2)c2c(C)cc(=O)oc2c1` (stereo not drawn), 12.9%; under `Cn1c(=Nc2ccc(N3CCOCC3)cc2)ccc2ccccc21`, -47.5%.
In the case of `N/C(=N\OC(=O)COc1ccccc1Cl)c1ccccn1` it was 28.1%; in that of `C/C(CC(=O)Nc1ccc2c(c1)OCO2)=N\NC(=O)c1ccccc1N`, -0.312%.
Regarding `CC(Oc1ccccc1)C(=O)N1CCN(c2ccc(N3CCCCC3)nn2)CC1` (stereo not drawn), the “hERG current change (%, negative = inhibition) at 10uM” value is -28.5%.
Under `COCC(=O)NCCc1ccc(S(N)(=O)=O)cc1` stands 19.8%; under `COc1ccc(NC(=O)CCC(=O)N(Cc2ccc(OC)c(OC)c2)c2nccs2)cc1`, 13.5%.
With `CCCC(=O)NC1=C(C#N)C2(CCCC2)Cc2ccccc21`, the “hERG current change (%, negative = inhibition) at 10uM” value is given as 8.35%.
With `O=C(Cc1ccccc1)N/N=C/c1cc(Br)cc(Cl)c1O`, the “hERG current change (%, negative = inhibition) at 10uM” value came to 22.2%.
For `CC(=O)N1CCC(C(=O)Nc2ccc(S(=O)(=O)NCCc3ccccc3)cc2)CC1`, the “hERG current change (%, negative = inhibition) at 10uM” value is 17.8%.
In the case of `CC(NC(=O)/C(C#N)=C/c1ccc(OCC(=O)O)cc1)c1ccccc1` (stereo not drawn) it was 21.5%; in that of `COc1ccc(COC(=O)Nc2cc3c(C(F)(F)F)nn(C)c3s2)cc1`, 14.8%; in that of `CCOc1cc(N2CCOCC2)c(OCC)cc1NC(=O)CN1C(=O)C2CC=CCC2C1=O` (stereo not drawn), -8.84%.
`[O-][n+]1onc2c1CCc1c-2nc(-c2ccccc2)n1OCc1ccccc1`: the “hERG current change (%, negative = inhibition) at 10uM” value is 3.28%.
Under `Cc1ccnc(NC(=S)NC(=O)/C=C/c2ccco2)c1` stands 13.5%; under `CC1Nc2ccccc2C(=O)N1NS(=O)(=O)c1ccccc1` (stereo not drawn), -1.58%; under `COc1ccc(C)cc1NC(C)C(=O)NC(=O)NC1CCCCC1` (stereo not drawn), 13.2%.
In the case of `COc1cc(C(=O)NCC(=O)Nc2c(C)cccc2C)ccc1OCc1ccccc1` it was -10.9%; in that of `Cc1csc2c(=O)sc(NC(=O)c3cccs3)nc12`, 4.98%.
Under `CCn1c(=O)c([N+](=O)[O-])c(N2CCSCC2)c2ccccc21` stands -3.07%; under `CCC(=O)c1ccc(OC(=O)c2cnccn2)cc1`, 23.6%.
